Laboratory results: the supplement of paper PMC12217912
The other results are listed elsewhere or left out. The full chains were built here from the parent and the listed change. Inactive controls read about 0.05.

B1: TEV protease; numbered along this chain (parent)
chain: MGESLFKGPRDYNPISSSICHLTNESDGHTTSLYGIGFGPFIITNKHLFRRNNGTLVVQSLHGVFKVKDTTTLQQHLVDGRDMIIIRMPKDFPPFPQKLKFREPQREERICLVTTNFQTKSMSSMVSDTSCTFPSGDGIFWKHWIQTKDGQCGSPLVSTRDGFIVGIHSASNFTNTNNYFTSVPKNFMELLTNQEAQQWVSGWRLNADSVLWGGHKVFMVKPEEPFQPVKEATQL

Variants of: B1
Test: raw area under fraction-flipped curve 0-4 h after induction (AUC4h, not background-subtracted), DNA-recorder readout of cleavage of the substrate (dimensionless); higher = more cleavage of the substrate by the protease variant
Conditions: temperature: 34 °C; time window: 0-4 h after rhamnose induction
Description: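 In vivo DNA recorder in E. coli TOP10(DE3) ΔrhaA at 34 °C. Each TEVp single-site mutant (parent TEVp 0) is paired with a single-site variant of the 7-mer TEVs (canonical ENLYFQ|S). The substrate sits between flexible linkers in a Bxb1-sfGFP-TEVs-SsrA fusion, so cleavage stabilises Bxb1 and speeds flipping of a recombination array, read by NGS. The value is the raw area under the fraction-flipped curve over 0-4 h after rhamnose induction (AUC4h), with ≥20 reads per time point. It is not background-subtracted; inactive controls average about 0.047.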
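Also: Bxb1 expression induced with 0.2% (w/v) L-rhamnose at OD600 near 0.5, cultures sampled hourly, flipped fraction per protease–substrate barcode pair counted by paired-end Illumina sequencing.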

Row | Variant | area with substrate EALYFQS | area with substrate EGLYFQS | area with substrate EKLYFQS | area with substrate ELLYFQS | area with substrate EMLYFQS | area with substrate ERLYFQS | area with substrate ESLYFQS | area with substrate EVLYFQS | area with substrate EWLYFQS | area with substrate EELYFQS
1 | MGESLFKGPRDYNPISSSICHLTNESDGHTTSLYGIGFGPFIITNKHLFRRNNGTLVVQSLHGVFKVKDTTTLQQHLVDGRDMIIIRMPKDFPPFPQKEKFREPQREERICLVTTNFQTKSMSSMVSDTSCTFPSGDGIFWKHWIQTKDGQCGSPLVSTRDGFIVGIHSASNFTNTNNYFTSVPKNFMELLTNQEAQQWVSGWRLNADSVLWGGHKVFMVKPEEPFQPVKEATQL [L99E] | 0.0815 | 0.0815 | 0.0816 | 0.0395 | 0.0759 | 0.069 | 0.0832 | 0.0536 | 0.051 | 
2 | MGESLFKGPRDYNPISSSICHLTNESDGHTTSLYGIGFGPFIITNKHLFRRNNGTLVVQSLHGVFKVKDTTTLQQHLVDGRDMIIIRMPKDFPPFPQKMKFREPQREERICLVTTNFQTKSMSSMVSDTSCTFPSGDGIFWKHWIQTKDGQCGSPLVSTRDGFIVGIHSASNFTNTNNYFTSVPKNFMELLTNQEAQQWVSGWRLNADSVLWGGHKVFMVKPEEPFQPVKEATQL [L99M] | 0.132 |  |  |  | 0.0652 | 0.0902 | 0.0961 | 0.0883 |  | 0.0683
3 | MGESLFKGPRDYNPISSSICHLTNESDGHTTSLYGIGFGPFIITNKHLFRRNNGTLVVQSLHGVFKVKDTTTLQQHLVDGRDMIIIRMPKDFCPFPQKLKFREPQREERICLVTTNFQTKSMSSMVSDTSCTFPSGDGIFWKHWIQTKDGQCGSPLVSTRDGFIVGIHSASNFTNTNNYFTSVPKNFMELLTNQEAQQWVSGWRLNADSVLWGGHKVFMVKPEEPFQPVKEATQL [P93C] | 0.093 |  |  | 0.0516 |  |  | 0.112 |  |  | 
4 | MGESLFKGPRDYNPISSSICHLTNESDGHTTSLYGIGFGPFIITNKHLFRRNNGTLVVRSLHGVFKVKDTTTLQQHLVDGRDMIIIRMPKDFPPFPQKLKFREPQREERICLVTTNFQTKSMSSMVSDTSCTFPSGDGIFWKHWIQTKDGQCGSPLVSTRDGFIVGIHSASNFTNTNNYFTSVPKNFMELLTNQEAQQWVSGWRLNADSVLWGGHKVFMVKPEEPFQPVKEATQL [Q59R] | 0.151 | 0.126 |  | 0.0956 |  |  | 0.115 | 0.0935 | 0.0931 | 0.165
5 | MGESLFKGPRDYNPISSSICHLTNESDGHTTSLYGIGFGPFIITNKHLFRRNNGTLVVNSLHGVFKVKDTTTLQQHLVDGRDMIIIRMPKDFPPFPQKLKFREPQREERICLVTTNFQTKSMSSMVSDTSCTFPSGDGIFWKHWIQTKDGQCGSPLVSTRDGFIVGIHSASNFTNTNNYFTSVPKNFMELLTNQEAQQWVSGWRLNADSVLWGGHKVFMVKPEEPFQPVKEATQL [Q59N] | 0.0894 |  |  |  | 0.104 | 0.107 | 0.0971 | 0.0958 |  | 
6 | MGESLFKGPRDYNPISSSICHLTNESDGHTTSLYGIGFGPFIITNKHLFRRNNGTLVVQSLHGVFKVKDFTTLQQHLVDGRDMIIIRMPKDFPPFPQKLKFREPQREERICLVTTNFQTKSMSSMVSDTSCTFPSGDGIFWKHWIQTKDGQCGSPLVSTRDGFIVGIHSASNFTNTNNYFTSVPKNFMELLTNQEAQQWVSGWRLNADSVLWGGHKVFMVKPEEPFQPVKEATQL [T70F] | 0.0943 |  | 0.0755 |  |  |  | 0.0827 | 0.0558 |  | 
7 | MGESLFKGPRDYNPISSSICHLTNESDGHTTSLYGIGFGPFIITNKHLFRRNNGTLVVQSLHGVFKVKDTTTLQQHLVDGADMIIIRMPKDFPPFPQKLKFREPQREERICLVTTNFQTKSMSSMVSDTSCTFPSGDGIFWKHWIQTKDGQCGSPLVSTRDGFIVGIHSASNFTNTNNYFTSVPKNFMELLTNQEAQQWVSGWRLNADSVLWGGHKVFMVKPEEPFQPVKEATQL [R81A] | 0.122 | 0.12 | 0.0887 |  | 0.091 |  | 0.0972 |  |  | 0.126
8 | MGESLFKGPRDYNPISSSICHLTNESDGHTTSLYGIGFGPFIITNKHLFRRNNGTLVVQSLHGVFKVKDTTTLQQFLVDGRDMIIIRMPKDFPPFPQKLKFREPQREERICLVTTNFQTKSMSSMVSDTSCTFPSGDGIFWKHWIQTKDGQCGSPLVSTRDGFIVGIHSASNFTNTNNYFTSVPKNFMELLTNQEAQQWVSGWRLNADSVLWGGHKVFMVKPEEPFQPVKEATQL [H76F] | 0.0922 | 0.0787 | 0.0824 | 0.0766 | 0.12 | 0.0672 | 0.0962 | 0.0683 | 0.0782 | 
9 | MGESLFKGPRDYNPISSSICHLTNESDGHTTSLYGIGFGPFIITNKHLFRRNNGTLVVQSLHGVIKVKDTTTLQQHLVDGRDMIIIRMPKDFPPFPQKLKFREPQREERICLVTTNFQTKSMSSMVSDTSCTFPSGDGIFWKHWIQTKDGQCGSPLVSTRDGFIVGIHSASNFTNTNNYFTSVPKNFMELLTNQEAQQWVSGWRLNADSVLWGGHKVFMVKPEEPFQPVKEATQL [F65I] | 0.0832 | 0.0654 |  |  | 0.0966 | 0.116 | 0.0977 | 0.0877 |  | 0.0617

Same assay, conditions: temperature: 34 °C; time window: 0-4 h after rhamnose induction

Row | Variant | area with substrate EILYFQS | area with substrate EQLYFQS | area with substrate EDLYFQS | area with substrate EHLYFQS | area with substrate EPLYFQS | area with substrate ETLYFQS | area with substrate EYLYFQS | area with substrate EFLYFQS
10 | MGESLFKGPRDYNPISSSICHLTNESDGHTTSLYGIGFGPFIITNKHLFRRNNGTLVVQSLHGVFKVKDTTTLQQHLVDGRDMIIIRMPKDFPPFPQKMKFREPQREERICLVTTNFQTKSMSSMVSDTSCTFPSGDGIFWKHWIQTKDGQCGSPLVSTRDGFIVGIHSASNFTNTNNYFTSVPKNFMELLTNQEAQQWVSGWRLNADSVLWGGHKVFMVKPEEPFQPVKEATQL [L99M] | 0.0854 | 0.131 |  |  |  |  |  | 
11 | MGESLFKGPRDYNPISSSICHLTNESDGHTTSLYGIGFGPFIITNKHLFRRNNGTLVVQSLHGVFKVKDTTTLQQHLVDGRDMIIIRMPKDFCPFPQKLKFREPQREERICLVTTNFQTKSMSSMVSDTSCTFPSGDGIFWKHWIQTKDGQCGSPLVSTRDGFIVGIHSASNFTNTNNYFTSVPKNFMELLTNQEAQQWVSGWRLNADSVLWGGHKVFMVKPEEPFQPVKEATQL [P93C] |  | 0.136 | 0.162 | 0.125 |  |  |  | 
12 | MGESLFKGPRDYNPISSSICHLTNESDGHTTSLYGIGFGPFIITNKHLFRRNNGTLVVRSLHGVFKVKDTTTLQQHLVDGRDMIIIRMPKDFPPFPQKLKFREPQREERICLVTTNFQTKSMSSMVSDTSCTFPSGDGIFWKHWIQTKDGQCGSPLVSTRDGFIVGIHSASNFTNTNNYFTSVPKNFMELLTNQEAQQWVSGWRLNADSVLWGGHKVFMVKPEEPFQPVKEATQL [Q59R] | 0.0814 | 0.127 | 0.136 |  | 0.16 | 0.117 | 0.119 | 
13 | MGESLFKGPRDYNPISSSICHLTNESDGHTTSLYGIGFGPFIITNKHLFRRNNGTLVVNSLHGVFKVKDTTTLQQHLVDGRDMIIIRMPKDFPPFPQKLKFREPQREERICLVTTNFQTKSMSSMVSDTSCTFPSGDGIFWKHWIQTKDGQCGSPLVSTRDGFIVGIHSASNFTNTNNYFTSVPKNFMELLTNQEAQQWVSGWRLNADSVLWGGHKVFMVKPEEPFQPVKEATQL [Q59N] |  |  |  |  | 0.121 |  |  | 
14 | MGESLFKGPRDYNPISSSICHLTNESDGHTTSLYGIGFGPFIITNKHLFRRNNGTLVVQSLHGVFKVKDFTTLQQHLVDGRDMIIIRMPKDFPPFPQKLKFREPQREERICLVTTNFQTKSMSSMVSDTSCTFPSGDGIFWKHWIQTKDGQCGSPLVSTRDGFIVGIHSASNFTNTNNYFTSVPKNFMELLTNQEAQQWVSGWRLNADSVLWGGHKVFMVKPEEPFQPVKEATQL [T70F] |  | 0.0838 |  |  |  |  |  | 0.0574
15 | MGESLFKGPRDYNPISSSICHLTNESDGHTTSLYGIGFGPFIITNKHLFRRNNGTLVVQSLHGVFKVKDTTTLQQHLVDGADMIIIRMPKDFPPFPQKLKFREPQREERICLVTTNFQTKSMSSMVSDTSCTFPSGDGIFWKHWIQTKDGQCGSPLVSTRDGFIVGIHSASNFTNTNNYFTSVPKNFMELLTNQEAQQWVSGWRLNADSVLWGGHKVFMVKPEEPFQPVKEATQL [R81A] | 0.0912 | 0.112 |  |  | 0.119 |  | 0.0963 | 
16 | MGESLFKGPRDYNPISSSICHLTNESDGHTTSLYGIGFGPFIITNKHLFRRNNGTLVVQSLHGVFKVKDTTTLQQFLVDGRDMIIIRMPKDFPPFPQKLKFREPQREERICLVTTNFQTKSMSSMVSDTSCTFPSGDGIFWKHWIQTKDGQCGSPLVSTRDGFIVGIHSASNFTNTNNYFTSVPKNFMELLTNQEAQQWVSGWRLNADSVLWGGHKVFMVKPEEPFQPVKEATQL [H76F] | 0.0683 | 0.0823 | 0.122 | 0.0886 |  | 0.0927 |  | 0.106
17 | MGESLFKGPRDYNPISSSICHLTNESDGHTTSLYGIGFGPFIITNKHLFRRNNGTLVVQSLHGVIKVKDTTTLQQHLVDGRDMIIIRMPKDFPPFPQKLKFREPQREERICLVTTNFQTKSMSSMVSDTSCTFPSGDGIFWKHWIQTKDGQCGSPLVSTRDGFIVGIHSASNFTNTNNYFTSVPKNFMELLTNQEAQQWVSGWRLNADSVLWGGHKVFMVKPEEPFQPVKEATQL [F65I] | 0.0645 | 0.123 |  | 0.0693 |  |  |  | 
